Results are given in words; binding and its absence hold for the method and conditions named. In cells and extracts the contact can be indirect. Some results given as binding are weak or reduced against the parent protein; the word gives no strength.
Legend:
[1] = molecular target: human GPR35 (GPR35a splice variant), receptor part of the hGPR35 SPASM sensors (human) (UniProt Q9HC97); assay: FRET or BRET; single-chain hGPR35 SPASM sensors with the C-terminal 27 aa of Gαq, G.H5.23Leu Gαq or Gα13; varying concentrations of lodoxamide or bufrolin; cells and mode of expression not told for this panel
[2] = molecular target: human GPR35 (GPR35a splice variant), receptor part of the hGPR35 SPASM sensors (human) (UniProt Q9HC97); assay: FRET or BRET; endpoint read of the single-chain SPASM sensor (Nanoluc to mCitrine) in living Flp-In T-REx 293 cells, stable, doxycycline-induced; 5 min after varying concentrations of GPR35 agonists; fold change over vehicle
[3] = molecular target: hGPR35 tagged at the C terminus with enhanced yellow fluorescent protein (human) (UniProt Q9HC97); assay: FRET or BRET; intermolecular BRET between full-length Gα13 with internal Nanoluc and hGPR35-eYFP, coexpressed transiently in HEK293 cells lacking Gα12 and Gα13; varying concentrations of zaprinast or lodoxamide
[4] = molecular target: human GPR35 (GPR35a splice variant), receptor part of the hGPR35 SPASM sensors (human) (UniProt Q9HC97); assay: FRET or BRET; endpoint read of the single-chain SPASM sensor (Nanoluc to mCitrine), sensors transiently expressed (HEK293-T); varying concentrations of zaprinast, lodoxamide, pamoic acid
[5] = molecular target: mouse GPR35, receptor part of the mGPR35 SPASM sensors (mouse) (UniProt Q9ES90); assay: FRET or BRET; kinetic read of the single-chain SPASM sensor (Nanoluc to mCitrine) in living Flp-In T-REx 293 cells, stable, doxycycline-induced; zaprinast (EC80, 16 uM human, 1 uM mouse) added at 30 s, read over 6 min; 37°C, HBSS with 10 mM HEPES; CID2745687 10 uM added at 120 s in some studies
[6] = molecular target: human GPR35 (GPR35a splice variant), receptor part of the hGPR35 SPASM sensors (human) (UniProt Q9HC97); assay: as above
[7] = molecular target: hGPR35 tagged at the C terminus with enhanced yellow fluorescent protein (human) (UniProt Q9HC97); assay: FRET or BRET; intermolecular BRET between β-arrestin-2-Renilla luciferase and hGPR35-eYFP, coexpressed transiently in HEK293-T cells; agonist-induced, coelenterazine-h

The chains behind the UniProt entries cited, without tags or fusion partners. Where a name states a change or a piece, a line headed by the entry shows the natural chain unless it says otherwise. A line that says so, or that is headed by a name, gives the form on record, which may keep a tag or linker. Residues count along the entry.
UniProt Q9HC97: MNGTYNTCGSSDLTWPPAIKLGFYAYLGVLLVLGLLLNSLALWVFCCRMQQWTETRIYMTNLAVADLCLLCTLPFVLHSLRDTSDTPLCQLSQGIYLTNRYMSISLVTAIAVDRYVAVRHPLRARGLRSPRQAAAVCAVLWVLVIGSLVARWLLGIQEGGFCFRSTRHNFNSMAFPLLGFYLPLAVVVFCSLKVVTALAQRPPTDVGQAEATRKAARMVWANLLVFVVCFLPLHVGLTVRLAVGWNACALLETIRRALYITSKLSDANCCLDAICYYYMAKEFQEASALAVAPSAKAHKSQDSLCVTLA
UniProt Q9ES90: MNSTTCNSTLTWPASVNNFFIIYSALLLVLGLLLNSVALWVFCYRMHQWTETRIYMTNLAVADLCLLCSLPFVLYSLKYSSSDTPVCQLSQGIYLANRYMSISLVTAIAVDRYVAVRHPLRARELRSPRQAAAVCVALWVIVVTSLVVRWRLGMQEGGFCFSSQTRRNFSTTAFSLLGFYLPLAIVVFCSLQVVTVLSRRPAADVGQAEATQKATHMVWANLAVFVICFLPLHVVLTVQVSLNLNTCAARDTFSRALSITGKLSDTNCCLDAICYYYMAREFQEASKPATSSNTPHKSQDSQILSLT
final 27 aa of Gαq, G peptide of the hGPR35-Gαq SPASM sensor (P50148, residues 333-359): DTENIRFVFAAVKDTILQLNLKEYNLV
final 27 aa of Gαq with G.H5.23 Tyr replaced by Leu (hGPR35 SPASM sensor) (P50148, form named): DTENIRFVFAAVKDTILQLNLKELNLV
final 27 aa of Gα12, G peptide of the hGPR35-Gα12 SPASM sensor (Q03113, residues 355-381): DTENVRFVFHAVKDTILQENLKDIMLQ
final 27 aa of Gα12 with G.H5.22 Asp and G.H5.23 Ile replaced by Gln and Leu of Gα13 (hGPR35 SPASM sensor) (Q03113, form named): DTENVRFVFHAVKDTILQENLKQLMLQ
final 27 aa of Gα12 with G.H5.22 Asp replaced by Gln (hGPR35 SPASM sensor) (Q03113, form named): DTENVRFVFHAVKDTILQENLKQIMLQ
final 27 aa of Gα12 with G.H5.17 Gln and G.H5.18 Glu swapped for His and Asp of Gα13 (hGPR35 SPASM sensor) (Q03113, form named): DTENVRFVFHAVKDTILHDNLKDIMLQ
final 27 aa of Gα12 with G.H5.23 Ile replaced by Leu (hGPR35 SPASM sensor) (Q03113, form named): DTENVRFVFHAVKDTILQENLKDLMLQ
UniProt Q14344: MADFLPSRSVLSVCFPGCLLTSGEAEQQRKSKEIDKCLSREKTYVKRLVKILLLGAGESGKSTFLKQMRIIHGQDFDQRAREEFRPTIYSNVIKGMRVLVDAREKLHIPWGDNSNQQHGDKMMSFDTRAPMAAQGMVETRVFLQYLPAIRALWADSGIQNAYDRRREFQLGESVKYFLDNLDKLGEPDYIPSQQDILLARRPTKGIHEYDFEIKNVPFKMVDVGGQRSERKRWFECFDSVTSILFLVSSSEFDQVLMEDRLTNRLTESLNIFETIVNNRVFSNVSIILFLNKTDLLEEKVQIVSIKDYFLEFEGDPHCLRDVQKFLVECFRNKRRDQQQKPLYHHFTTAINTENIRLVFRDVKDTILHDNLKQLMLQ
final 27 aa of Gα13 with G.H5.22 Gln replaced by Asp (hGPR35 SPASM sensor) (Q14344, form named): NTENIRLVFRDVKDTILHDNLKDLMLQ
full-length human Gα13 with Nanoluc inserted after Arg128, G.H5.22 Gln converted to Asp (Q14344, form named): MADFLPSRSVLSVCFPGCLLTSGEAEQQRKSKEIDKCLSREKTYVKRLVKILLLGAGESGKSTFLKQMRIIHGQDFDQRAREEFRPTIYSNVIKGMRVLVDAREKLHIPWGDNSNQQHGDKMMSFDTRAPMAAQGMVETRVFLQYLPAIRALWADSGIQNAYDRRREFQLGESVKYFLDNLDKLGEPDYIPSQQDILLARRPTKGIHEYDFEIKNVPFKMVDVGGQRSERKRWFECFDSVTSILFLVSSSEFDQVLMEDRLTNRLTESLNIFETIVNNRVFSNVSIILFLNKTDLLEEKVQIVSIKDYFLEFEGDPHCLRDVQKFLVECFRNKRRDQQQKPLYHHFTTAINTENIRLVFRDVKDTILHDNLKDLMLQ
final 27 aa of Gα13 with G.H5.17 His and G.H5.18 Asp swapped for Gln and Glu of Gα12 (hGPR35 SPASM sensor) (Q14344, form named): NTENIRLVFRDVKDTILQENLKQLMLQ
final 27 aa of Gα13 with G.H5.22 Gln and G.H5.23 Leu replaced by Asp and Ile of Gα12 (hGPR35 SPASM sensor) (Q14344, form named): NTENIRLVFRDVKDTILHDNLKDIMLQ
UniProt P32121: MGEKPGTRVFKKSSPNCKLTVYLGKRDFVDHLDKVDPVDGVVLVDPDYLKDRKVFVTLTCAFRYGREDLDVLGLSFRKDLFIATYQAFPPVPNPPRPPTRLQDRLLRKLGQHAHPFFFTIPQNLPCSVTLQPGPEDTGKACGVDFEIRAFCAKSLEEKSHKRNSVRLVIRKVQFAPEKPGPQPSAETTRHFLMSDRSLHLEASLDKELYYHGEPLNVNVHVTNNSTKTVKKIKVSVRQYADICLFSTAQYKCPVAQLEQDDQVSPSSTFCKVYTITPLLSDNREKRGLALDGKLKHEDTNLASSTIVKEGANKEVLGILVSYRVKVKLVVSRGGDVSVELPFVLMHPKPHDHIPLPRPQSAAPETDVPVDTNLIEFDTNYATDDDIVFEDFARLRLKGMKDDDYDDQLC

| Substance | binding [2] | also measured |
| --- | --- | --- |
| final 27 aa of Gαq with G.H5.23 Tyr replaced by Leu (hGPR35 SPASM sensor) (from UniProt P50148 333-359) (domain or fragment) |  | binding [1]: binds |
| final 27 aa of Gα12 with G.H5.22 Asp and G.H5.23 Ile replaced by Gln and Leu of Gα13 (hGPR35 SPASM sensor) (from UniProt Q03113 355-381) (domain or fragment) | binds |  |
| final 27 aa of Gα12 with G.H5.22 Asp replaced by Gln (hGPR35 SPASM sensor) (from UniProt Q03113 355-381) (domain or fragment) | binds |  |
| final 27 aa of Gα13 with G.H5.22 Gln replaced by Asp (hGPR35 SPASM sensor) (from UniProt Q14344 351-377) (domain or fragment) | binds |  |
| full-length human Gα13 with Nanoluc inserted after Arg128, G.H5.22 Gln converted to Asp (from UniProt Q14344 1-377) |  | binding [3]: binds |
| final 27 aa of Gα12, G peptide of the hGPR35-Gα12 SPASM sensor (from UniProt Q03113 355-381) (domain or fragment) | binds weakly | binding [4]: binds weakly |
| final 27 aa of Gα13 with G.H5.17 His and G.H5.18 Asp swapped for Gln and Glu of Gα12 (hGPR35 SPASM sensor) (from UniProt Q14344 351-377) (domain or fragment) | binds |  |
| full-length human Gα13 with Nanoluc inserted after Arg128, wild type (from UniProt Q14344 1-377) |  | binding [3]: binds |
| final 27 aa of Gαq, G peptide of the hGPR35-Gαq SPASM sensor (from UniProt P50148 333-359) (domain or fragment) |  | binding [1]: no binding |
| final 27 aa of Gα13, G peptide of the GPR35-Gα13 SPASM sensors (from UniProt Q14344 351-377) (domain or fragment) | binds | binding [4]: binds; binding [5]: binds; binding [6]: binds |
| final 27 aa of Gα12 with G.H5.17 Gln and G.H5.18 Glu swapped for His and Asp of Gα13 (hGPR35 SPASM sensor) (from UniProt Q03113 355-381) (domain or fragment) | binds weakly |  |
| β-arrestin-2 tagged with Renilla luciferase (from UniProt P32121 1-409) |  | binding [7]: binds |
| final 27 aa of Gα12 with G.H5.23 Ile replaced by Leu (hGPR35 SPASM sensor) (from UniProt Q03113 355-381) (domain or fragment) | binds |  |
| final 27 aa of Gα13 with G.H5.22 Gln and G.H5.23 Leu replaced by Asp and Ile of Gα12 (hGPR35 SPASM sensor) (from UniProt Q14344 351-377) (domain or fragment) | binds weakly |  |

— publication PMC6436656
